Results taken from PMC4336329 (PLoS ONE, 2015).
Screen size: about 310,000 compounds; about 14,000 (4.5%) showed an effect of 50% or more. Effects have a minus sign here. Some of the results follow.

What follows are molecules tested against human ether-à-go-go-related gene (hERG) potassium channel (human, UniProt Q12809) (assay: primary screen, population patch clamp on CHO cells stably expressing hERG).
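Further: peak tail current of the secondary pulse compared with the same well before compound.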

Sequence of human ether-à-go-go-related gene (hERG) potassium channel (Q12809 whole entry, looked up): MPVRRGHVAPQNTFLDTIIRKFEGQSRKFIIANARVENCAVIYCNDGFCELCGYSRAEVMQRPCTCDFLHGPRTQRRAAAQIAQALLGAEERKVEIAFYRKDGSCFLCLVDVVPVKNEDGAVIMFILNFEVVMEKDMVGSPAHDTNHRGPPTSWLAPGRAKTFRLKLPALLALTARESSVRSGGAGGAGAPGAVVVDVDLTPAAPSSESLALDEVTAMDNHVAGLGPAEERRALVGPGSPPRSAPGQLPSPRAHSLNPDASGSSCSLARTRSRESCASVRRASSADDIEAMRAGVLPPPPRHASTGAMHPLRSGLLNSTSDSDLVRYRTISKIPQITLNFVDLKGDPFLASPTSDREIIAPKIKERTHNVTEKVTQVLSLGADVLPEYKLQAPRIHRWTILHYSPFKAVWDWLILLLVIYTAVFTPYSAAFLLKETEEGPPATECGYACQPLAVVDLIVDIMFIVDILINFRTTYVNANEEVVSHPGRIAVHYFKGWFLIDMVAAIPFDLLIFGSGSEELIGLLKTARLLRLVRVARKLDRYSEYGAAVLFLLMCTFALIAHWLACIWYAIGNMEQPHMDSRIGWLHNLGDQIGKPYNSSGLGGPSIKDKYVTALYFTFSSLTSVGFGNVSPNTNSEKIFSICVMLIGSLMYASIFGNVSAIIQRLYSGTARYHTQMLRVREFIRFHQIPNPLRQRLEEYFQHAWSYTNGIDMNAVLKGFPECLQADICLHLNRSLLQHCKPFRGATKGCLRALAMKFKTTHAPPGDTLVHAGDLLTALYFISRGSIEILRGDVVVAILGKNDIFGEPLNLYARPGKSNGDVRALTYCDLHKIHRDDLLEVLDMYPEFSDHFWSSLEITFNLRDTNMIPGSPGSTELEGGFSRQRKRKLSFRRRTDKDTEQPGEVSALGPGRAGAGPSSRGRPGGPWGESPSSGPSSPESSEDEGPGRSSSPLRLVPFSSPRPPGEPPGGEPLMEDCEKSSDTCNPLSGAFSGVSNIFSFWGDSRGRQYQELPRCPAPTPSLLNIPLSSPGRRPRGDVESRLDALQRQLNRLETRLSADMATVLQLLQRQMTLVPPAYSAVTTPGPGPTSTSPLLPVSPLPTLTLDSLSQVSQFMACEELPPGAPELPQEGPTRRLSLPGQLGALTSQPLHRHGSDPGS

In order of falling “hERG current change (%, negative = inhibition) at 10uM” value:
1. COc1cc(NC(=O)CSC(=S)N2CCCC2)c(OC)cc1Cl  25.5%
2. CSCCC(NC(=O)/C(=C\c1ccc(Cl)cc1)NC(=O)c1ccccc1)C(=O)O (centres unmarked)  21.1%
3. CN1CCN(CCCNC(=O)C2CCN(c3nnc(-n4cccc4)s3)CC2)CC1  20.2%
4. CCN(CC)C(=O)c1nc[nH]c1C(=O)N1CCN(c2ccccc2)CC1  17.5%
5. CC(=O)Nc1ccc(NC(=O)c2ccc(COc3ccccc3Br)o2)cc1  17.1%
6. COc1ccc(S(=O)(=O)Nc2ccc3c(c2)n(C)c(=O)n3C)cc1F  16.3%
7. CC(NC(=O)NC(=O)c1ccc(Cl)cc1)c1ccccc1 (centres unmarked)  15%
8. CC(=O)OC(C(=O)NCc1ccc2c(c1)OCO2)c1ccccc1Cl (centres unmarked)  14%
9. CCCc1nnc(SCC(=O)N2CCCCC2)n1CCCOC  12%
10. COC(=O)c1ccc(Oc2ccc(C(C)(C)C)cc2)c([N+](=O)[O-])c1  11.7%
11. O=C(O)CCn1c2ccccc2c2nc3ccccc3nc21  11.6%
12. O=C(CC(NC(=O)c1ccccc1Cl)c1ccccc1)Nc1ccc2c(c1)OCO2 (centres unmarked)  11.4%
13. CCOC(=O)C1=C(COC(=O)COc2ccccc2C#N)NC(=O)NC1C (centres unmarked)  11.1%
14. CCCCOc1ccc(C(C)NC(=O)C2CCCN(S(=O)(=O)CC)C2)cc1 (centres unmarked)  9.13%
15. COc1ccc2nc(CCN(C)C(=O)C3CCC(=O)N(Cc4cccc(F)c4)C3)[nH]c2c1 (centres unmarked)  8.91%
16. COC(=O)c1ccc(CSc2nc3c(cnn3-c3ccc(C)c(C)c3)c(=O)[nH]2)o1  8.51%
17. Cc1cc(SCc2ccc(F)cc2)nc(=O)[nH]1  8.12%
18. Cc1nnc(N/N=C/c2cccc(OCc3ccc(Cl)c(Cl)c3)c2)n1N.Cl  8.08%
19. O=C(O)c1cc(N2C(=O)C3C4C=CC(C4)C3C2=O)ccc1N1CCOCC1 (centres unmarked)  6.73%
20. Cc1ccc(-c2nnc(SCC(=O)Nc3ccccc3F)o2)cc1  6.53%
21. O=C(CC1CCCCC1)Nc1ccccc1-c1ccccc1  6.47%
22. Cc1ccc(S(=O)(=O)NCCCCCC(=O)N(C)C)cc1  6.32%
23. COC(=O)C1C(=O)c2c([nH]c(C(=O)OC3CCCC3C)c2C)CC1C (centres unmarked)  6.17%
24. Nc1[nH]n(-c2ccccc2)c(=O)c1N=Nc1ccc2c(c1)OCCO2  6.01%
25. CCOC(=O)c1ccc(NC(=O)CCc2nc(-c3ccc(C)cc3)no2)cc1  5.14%
26. COc1ccccc1N1CCN(CC(=O)Nc2ccnn2C2CCCC2)CC1  3.01%
27. Cc1ccc(C)c(CN2CCN(c3ncccn3)CC2)c1  0.844%
28. Cc1cc(C)cc(OCC(=O)N2Cc3ccccc3CC2C(=O)O)c1 (centres unmarked)  0.818%
29. O=C(c1ccccc1[N+](=O)[O-])N1CCN(c2ccc(N3CCOCC3)nn2)CC1  0.769%
30. Cc1cccc(C(C(N)=O)c2ncc(C(F)(F)F)cc2Cl)c1 (centres unmarked)  -0.224%
31. Cc1ccc(C=C2C(=O)c3ccccc3C2=O)s1  -0.492%
32. CCC(Sc1nc(C)cc(C)n1)C(=O)NC1=NN=C(c2ccc(C)cc2)CS1 (centres unmarked)  -3.24%
33. N=C1c2ccccc2CN1NC(=O)CC12CC3CC(CC(C3)C1)C2  -5.03%
34. O=S(=O)(NC1CCN(S(=O)(=O)c2ccc3c(c2)OCCO3)C1)c1c(F)cccc1F (centres unmarked)  -5.22%
35. COc1ccc(NC(=O)CN2C(=O)CC(C)(C)S(=O)(=O)c3ccccc32)cc1  -5.29%
36. COc1ccc(S(=O)(=O)Nc2cc3c4c(c2)CCN4C(=O)CC3)cc1OC  -7.56%
37. CCN(CC)CCn1cnc2c([nH]c3cccc(OC)c32)c1=O  -8.27%
38. COc1cc(C2NC(=O)c3ccccc3O2)cc(OC)c1OC (centres unmarked)  -9.55%
39. O=S(=O)(NCCc1ccncc1)c1cc(Br)ccc1F  -10.3%
40. CC1CCc2nn(CC(=O)NCc3ccc4c(c3)OCO4)cc2C1 (centres unmarked)  -10.5%
41. Cc1ccc(S(=O)(=O)NCC(=O)OCC(=O)c2cc(C)n(-c3ccccc3)c2C)cc1  -12.5%
42. O=C(COc1ccccc1)n1nc(-c2ccc(Cl)cc2)nc1NCc1ccco1  -12.5%
43. COc1ccc(C(c2c(NC(=O)c3ccco3)sc(C)c2C)N2CCOCC2)cc1OC (centres unmarked)  -15%
44. CNCCCC1Sc2ccccc2Oc2ccccc21.O=C(O)C(=O)O (centres unmarked)  -16.1%
45. COc1cccc(NC(=O)CSc2ccc3nnc(-c4ccncc4)n3n2)c1  -22.7%
46. Cc1nc(NCc2ccco2)c2c3c(sc2n1)CCC3  -24.3%
47. CCOC(=O)C(=CNc1ccc(Oc2cncc(Cl)c2)nc1)C(=O)OCC  -27.9%
48. CCS(=O)(=O)N1CCCC(C(=O)NCCc2ccccc2)C1 (centres unmarked)  -28.3%
49. O=C(Nc1ccc(Oc2cccnc2)nc1)c1ccc(C(F)(F)F)cc1  -30%
50. NC(=O)C1(N2CCCCC2)CCN(C(=O)c2ccc(-n3cnnn3)cc2)CC1  -30.6%
51. COc1ccc(C(=O)OCC(=O)Nc2cccc(C(C)=O)c2)c(OC)c1OC  -33%
52. O=C(NCCCn1ccnc1)/C(=C\c1ccco1)NC(=O)c1ccco1  -35.3%
53. COc1ccc(NS(=O)(=O)c2cccc(C(=O)NC3CCN(Cc4ccccc4)CC3)c2)cc1  -46.7%
54. CN1C2CCC1CC(NC(=O)CSCc1ccc(Cl)cc1Cl)C2 (centres unmarked)  -57.4%
55. CCOc1cc(/C=N/n2cnnc2)ccc1OS(=O)(=O)c1ccccc1  -57.7%
56. O=C(Nc1ccccc1N1CCN(C(=O)c2ccccc2)CC1)c1ccc(Cl)cc1  -73.2%
